Laboratory results published in publication PMC6570896.
These are yes or no findings as the source states them, for the method shown. Some results given as binding are weak or reduced against the parent protein; the word gives no strength. For some assays here: Where a sequence is shown, tags or fusion partners need not be part of it.

Chains of the proteins cited; added tags and fusions are not shown.
UniProt Q93ZX1: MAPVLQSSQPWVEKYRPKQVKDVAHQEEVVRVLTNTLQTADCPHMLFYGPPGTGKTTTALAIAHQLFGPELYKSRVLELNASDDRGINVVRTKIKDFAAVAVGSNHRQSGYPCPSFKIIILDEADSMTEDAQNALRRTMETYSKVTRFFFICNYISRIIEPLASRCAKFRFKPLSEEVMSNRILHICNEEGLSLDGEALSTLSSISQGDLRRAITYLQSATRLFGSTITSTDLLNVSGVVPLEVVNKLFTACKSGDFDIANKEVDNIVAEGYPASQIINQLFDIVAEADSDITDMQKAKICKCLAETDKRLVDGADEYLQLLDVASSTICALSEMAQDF
UniProt Q9FXM3: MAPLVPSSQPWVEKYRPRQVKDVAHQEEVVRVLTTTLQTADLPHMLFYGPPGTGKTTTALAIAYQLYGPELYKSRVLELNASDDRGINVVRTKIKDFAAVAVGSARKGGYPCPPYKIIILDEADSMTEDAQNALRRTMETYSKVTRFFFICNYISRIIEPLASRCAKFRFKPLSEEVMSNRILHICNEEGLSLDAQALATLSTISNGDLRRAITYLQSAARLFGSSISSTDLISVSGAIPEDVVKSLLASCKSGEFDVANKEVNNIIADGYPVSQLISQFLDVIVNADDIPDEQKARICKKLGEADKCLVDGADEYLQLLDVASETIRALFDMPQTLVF
UniProt Q9M7Q7: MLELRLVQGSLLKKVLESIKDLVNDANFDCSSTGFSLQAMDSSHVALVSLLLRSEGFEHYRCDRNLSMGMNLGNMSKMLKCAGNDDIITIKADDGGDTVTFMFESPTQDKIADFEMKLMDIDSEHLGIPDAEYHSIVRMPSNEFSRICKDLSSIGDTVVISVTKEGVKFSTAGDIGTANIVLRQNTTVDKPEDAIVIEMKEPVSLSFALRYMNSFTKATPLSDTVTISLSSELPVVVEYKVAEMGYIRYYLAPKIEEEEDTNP
UniProt Q9ZW35: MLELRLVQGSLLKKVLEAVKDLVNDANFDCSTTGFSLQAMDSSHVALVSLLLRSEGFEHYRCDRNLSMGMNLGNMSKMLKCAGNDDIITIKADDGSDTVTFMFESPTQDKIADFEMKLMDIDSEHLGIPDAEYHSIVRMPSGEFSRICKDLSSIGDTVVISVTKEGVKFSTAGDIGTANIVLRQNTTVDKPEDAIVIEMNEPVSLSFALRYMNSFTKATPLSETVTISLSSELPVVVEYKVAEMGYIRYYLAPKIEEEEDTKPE
UniProt P17070: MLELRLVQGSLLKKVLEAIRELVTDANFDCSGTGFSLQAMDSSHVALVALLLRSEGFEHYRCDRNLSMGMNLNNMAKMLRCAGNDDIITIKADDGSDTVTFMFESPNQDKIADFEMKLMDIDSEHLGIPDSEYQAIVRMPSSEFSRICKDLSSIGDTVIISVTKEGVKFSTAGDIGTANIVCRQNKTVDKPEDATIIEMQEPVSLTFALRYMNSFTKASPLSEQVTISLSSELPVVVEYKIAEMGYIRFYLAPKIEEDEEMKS

Tests used:
Assay in all cases: two-hybrid; Clontech system, yeast AH109; RFC subunits as BD fusions, PCNAs as AD fusions; growth on SD-Leu-Trp-His-Ade, 7 days at 28 °C
[1] = target: AtRFC4-BD (Arabidopsis thaliana) (UniProt Q93ZX1)
[2] = target: T1, AtRFC2-BD (Arabidopsis thaliana) (UniProt Q9CAM7)
T1 sequence: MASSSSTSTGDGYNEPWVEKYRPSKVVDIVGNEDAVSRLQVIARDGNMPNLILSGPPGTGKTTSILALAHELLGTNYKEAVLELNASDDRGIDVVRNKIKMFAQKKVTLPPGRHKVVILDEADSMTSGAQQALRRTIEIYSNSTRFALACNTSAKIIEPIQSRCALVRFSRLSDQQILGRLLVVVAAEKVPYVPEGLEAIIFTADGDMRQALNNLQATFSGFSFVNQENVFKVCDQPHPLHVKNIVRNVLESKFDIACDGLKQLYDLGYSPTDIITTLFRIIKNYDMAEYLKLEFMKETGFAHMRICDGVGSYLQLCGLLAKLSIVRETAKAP

[3] = target: T2, AtRFC1-BD (Arabidopsis thaliana) (UniProt Q9C587)
T2 sequence: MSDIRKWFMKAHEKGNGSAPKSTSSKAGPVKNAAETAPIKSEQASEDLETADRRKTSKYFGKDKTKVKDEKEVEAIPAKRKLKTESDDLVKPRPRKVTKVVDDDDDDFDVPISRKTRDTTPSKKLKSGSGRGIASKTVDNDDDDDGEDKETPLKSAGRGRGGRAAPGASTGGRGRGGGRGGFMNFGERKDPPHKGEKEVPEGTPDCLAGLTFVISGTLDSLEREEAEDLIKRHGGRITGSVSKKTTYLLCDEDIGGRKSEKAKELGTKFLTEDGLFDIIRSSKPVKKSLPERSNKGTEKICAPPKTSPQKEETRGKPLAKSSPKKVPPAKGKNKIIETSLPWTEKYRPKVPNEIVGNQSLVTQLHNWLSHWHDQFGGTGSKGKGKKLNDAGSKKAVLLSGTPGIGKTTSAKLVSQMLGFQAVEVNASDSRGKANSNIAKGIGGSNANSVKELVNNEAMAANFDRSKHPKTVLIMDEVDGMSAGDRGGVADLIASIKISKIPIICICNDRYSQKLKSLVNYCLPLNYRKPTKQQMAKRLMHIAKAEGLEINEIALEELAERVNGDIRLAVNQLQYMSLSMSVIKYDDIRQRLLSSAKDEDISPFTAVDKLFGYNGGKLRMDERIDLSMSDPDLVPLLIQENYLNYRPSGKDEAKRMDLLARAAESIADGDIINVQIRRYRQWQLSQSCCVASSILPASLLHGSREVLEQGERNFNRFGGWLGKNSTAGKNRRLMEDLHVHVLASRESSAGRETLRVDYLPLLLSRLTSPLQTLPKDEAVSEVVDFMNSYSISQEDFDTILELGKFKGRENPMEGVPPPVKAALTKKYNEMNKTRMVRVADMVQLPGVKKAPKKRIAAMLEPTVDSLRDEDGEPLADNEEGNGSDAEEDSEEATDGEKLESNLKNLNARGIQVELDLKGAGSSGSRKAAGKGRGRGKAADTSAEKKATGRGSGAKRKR

[4] = target: T3, OsRFC5-BD (rice (Oryza sativa)) (UniProt Q852K3)
T3 sequence: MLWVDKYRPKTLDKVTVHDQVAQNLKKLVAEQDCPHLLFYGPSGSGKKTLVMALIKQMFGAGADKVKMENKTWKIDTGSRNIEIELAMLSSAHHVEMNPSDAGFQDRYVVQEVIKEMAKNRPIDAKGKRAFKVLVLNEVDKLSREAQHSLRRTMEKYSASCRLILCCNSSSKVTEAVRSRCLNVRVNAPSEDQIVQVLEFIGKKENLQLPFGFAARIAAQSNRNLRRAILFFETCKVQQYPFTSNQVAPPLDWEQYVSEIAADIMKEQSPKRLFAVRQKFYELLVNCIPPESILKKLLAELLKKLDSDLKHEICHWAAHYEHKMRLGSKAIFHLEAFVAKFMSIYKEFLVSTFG

[5] = target: T4, OsRFC4-BD (rice (Oryza sativa)) (UniProt Q7XRX1)
T4 sequence: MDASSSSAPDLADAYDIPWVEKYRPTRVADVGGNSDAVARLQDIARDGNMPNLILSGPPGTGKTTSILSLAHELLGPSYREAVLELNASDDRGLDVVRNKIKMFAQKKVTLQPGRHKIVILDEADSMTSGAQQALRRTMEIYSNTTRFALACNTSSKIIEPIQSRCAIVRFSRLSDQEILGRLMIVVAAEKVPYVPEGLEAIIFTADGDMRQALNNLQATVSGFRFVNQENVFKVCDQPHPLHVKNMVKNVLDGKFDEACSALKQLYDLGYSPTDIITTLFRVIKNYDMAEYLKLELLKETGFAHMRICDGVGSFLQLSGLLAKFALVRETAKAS

[6] = target: T5, OsRFC1-BD (rice (Oryza sativa)) (UniProt Q2R2B4)
T5 sequence: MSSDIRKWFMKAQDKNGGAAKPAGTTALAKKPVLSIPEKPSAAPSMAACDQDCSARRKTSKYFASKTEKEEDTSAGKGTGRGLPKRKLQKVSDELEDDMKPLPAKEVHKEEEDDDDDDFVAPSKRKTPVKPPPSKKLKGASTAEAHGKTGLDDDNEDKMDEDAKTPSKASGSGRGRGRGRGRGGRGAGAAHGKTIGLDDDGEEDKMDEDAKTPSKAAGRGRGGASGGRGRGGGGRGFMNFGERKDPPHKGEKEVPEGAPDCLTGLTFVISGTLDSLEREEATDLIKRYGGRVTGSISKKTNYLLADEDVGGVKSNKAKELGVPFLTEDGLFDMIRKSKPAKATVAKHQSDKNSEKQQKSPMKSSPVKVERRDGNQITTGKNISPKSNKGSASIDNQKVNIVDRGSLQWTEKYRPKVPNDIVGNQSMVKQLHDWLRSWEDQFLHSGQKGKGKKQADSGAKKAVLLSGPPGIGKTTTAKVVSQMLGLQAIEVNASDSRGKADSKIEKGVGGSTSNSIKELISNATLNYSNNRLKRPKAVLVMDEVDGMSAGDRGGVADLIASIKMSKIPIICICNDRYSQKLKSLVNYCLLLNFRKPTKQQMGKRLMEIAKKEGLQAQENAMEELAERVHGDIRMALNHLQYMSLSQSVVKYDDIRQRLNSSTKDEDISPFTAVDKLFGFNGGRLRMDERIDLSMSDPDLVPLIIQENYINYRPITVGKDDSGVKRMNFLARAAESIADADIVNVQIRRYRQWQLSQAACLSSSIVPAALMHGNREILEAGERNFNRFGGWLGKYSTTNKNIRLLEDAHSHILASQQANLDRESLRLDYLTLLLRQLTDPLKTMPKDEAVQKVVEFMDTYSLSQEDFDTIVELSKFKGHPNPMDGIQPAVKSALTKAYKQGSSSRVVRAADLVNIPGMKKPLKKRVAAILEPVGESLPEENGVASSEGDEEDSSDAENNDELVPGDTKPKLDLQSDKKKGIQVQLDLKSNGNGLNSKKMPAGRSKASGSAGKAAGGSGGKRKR

[7] = target: OsRFC2-BD (rice (Oryza sativa)) (UniProt Q9FXM3)
[8] = target: T6, OsRFC3-BD (rice (Oryza sativa)) (UniProt Q6YZ54)
T6 sequence: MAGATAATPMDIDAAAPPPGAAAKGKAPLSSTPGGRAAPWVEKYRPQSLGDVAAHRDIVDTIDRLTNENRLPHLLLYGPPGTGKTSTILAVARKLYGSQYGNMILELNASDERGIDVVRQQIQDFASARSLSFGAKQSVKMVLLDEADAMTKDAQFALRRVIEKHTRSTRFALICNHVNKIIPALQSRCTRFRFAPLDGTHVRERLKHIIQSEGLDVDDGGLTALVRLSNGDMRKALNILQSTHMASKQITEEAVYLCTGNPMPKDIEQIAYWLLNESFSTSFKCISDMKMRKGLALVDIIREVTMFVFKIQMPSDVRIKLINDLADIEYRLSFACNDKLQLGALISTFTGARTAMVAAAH

binding [1]	binding [2]	binding [3]	binding [4]	binding [5]	binding [6]	binding [7]	binding [8]	Substance
binds	binds	no binding						AtPCNA1-AD (from UniProt Q9M7Q7 1-263)
binds	binds	no binding						AtPCNA2-AD (from UniProt Q9ZW35 1-264)
			binds	binds	binds	binds	binds	OsPCNA-AD (from UniProt P17070 1-263)
